# Measurements from PubChem BioAssay (EPA / NIEHS).
# For part of these data: Most of the hits are listed elsewhere, so they are rarer here than in the full data. Results filed as inconclusive are left out. The entries are a selection whose mix differs from that of the whole data set. The source made the active and inactive calls. Rule for the calls, unless noted: active = hit-call score of the fitted dose curve at least 0.9, where 1 is the maximum; inactive = score below 0.9.
# How the values were obtained:
# [1] = CEETOX_H295R_CORTIC: CeeTox H295R High-throughput Steroidogenesis Assay for Corticosterone (CORTIC) (AID 2283437); settings: actives raise or lower the signal
# Outline: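 Medium corticosterone was quantified by tandem mass spectrometry following 48 hours of chemical exposure (0.1% DMSO) in human H295R cells previously stimulated 48 hours with 10 uM forskolin. Viability checked by MTT; chemicals diluted and retested when viability fell below 70%.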
# [2] = CEETOX_H295R_DOC: CeeTox H295R High-throughput Steroidogenesis Assay for DOC (AID 2283439); settings: actives raise or lower the signal
# Outline: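 H295R, fsk 10 uM ×48 h pre, cmpd ×48 h (0.1% DMSO). Media → MTBE extr. → LC-MS/MS, DOC. Bidirectional fit vs DMSO; MTT viability same wells, re-test diluted if <70%.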
# [3] = CEETOX_H295R_MTT_cell_viability: Viability Assessment in the CeeTox HT-H295R MTT Assay (AID 2283718);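 for AC50: curve fitted both ways so AC50 may mark viability loss or gain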
# [4] = CCTE_Shafer_MEA_acute_burst_percentage_mean: CCTE's Neural Acute Assay for Percentage of Spikes in a Burst, Shafer Lab (AID 2284017);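 note: curve fitted for loss of signal so potency reflects decreased burst percentage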
# Outline: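 Primary rat cortical neurons on 16-electrode MEA wells; 40 min baseline recorded at DIV 13 or 15, then 40 min after compound (0.03-40 uM) at 37 C. Well-mean fraction of spikes in single-electrode bursts; percent change from baseline, DMSO as negative control.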
# [5] = biological target: Peroxisome proliferator-activated receptor gamma (Homo sapiens) (UniProt P37231); experiment: OT_PPARg_PPARgSRC1_1440: Odyssey Thera (OT) 24-hour Protein-Complementation Assay for Peroxisome Proliferator-activated Receptor Gamma/ SRC-1 Co-activator (AID 2283388; active = hit-call score of the fitted dose curve at least 0.9, where 1 is the maximum;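 note: nuclear to cytoplasmic ratio of reconstituted Venus YFP fluorescence in fixed imaged cells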)
# UniProt P37231, sequence (P37231 whole entry, looked up, the tested form may be a part): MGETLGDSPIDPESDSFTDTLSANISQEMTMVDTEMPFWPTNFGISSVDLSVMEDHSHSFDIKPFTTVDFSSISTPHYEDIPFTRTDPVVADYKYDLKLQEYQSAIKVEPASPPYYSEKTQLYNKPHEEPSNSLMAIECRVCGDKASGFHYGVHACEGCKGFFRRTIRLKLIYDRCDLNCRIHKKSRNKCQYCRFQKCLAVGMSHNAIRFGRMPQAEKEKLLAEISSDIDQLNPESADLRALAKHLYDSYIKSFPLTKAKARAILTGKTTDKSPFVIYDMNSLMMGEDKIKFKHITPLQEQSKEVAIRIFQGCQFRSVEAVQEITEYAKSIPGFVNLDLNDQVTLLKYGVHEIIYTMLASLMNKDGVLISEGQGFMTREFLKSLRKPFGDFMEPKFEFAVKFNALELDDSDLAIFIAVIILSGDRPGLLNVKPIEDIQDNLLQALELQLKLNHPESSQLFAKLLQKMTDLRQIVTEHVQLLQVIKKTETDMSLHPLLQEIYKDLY
# Outline: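 Readout: nuclear-to-cytoplasmic 488 nm fluorescence ratio, ≥350 cells per image, 8 images per well, after 24 h compound exposure of HEK293T expressing PPARg/SRC-1 split-YFP fusions. Activity fitted in positive direction against DMSO.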
# [6] = read-out: solute carrier (SLCO1B1), SLCO1B1 (gene 10599); experiment: LTEA_HepaRG_SLCO1B1: Life Technologies and Expression Analysis (LTEA) Assay for solute carrier (SLCO1B1) using HepaRG (AID 2283530); settings: actives raise or lower the signal; mRNA level, 48 h
# Outline: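 SLCO1B1 transcript read by qRT-PCR (Fluidigm arrays), normalized to three housekeeping genes, after 48 h chemical exposure of HepaRG cells; bidirectional concentration-response fitting versus 0.5% DMSO baseline. Eight-point half-log series, maximum 100 uM.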
# [7] = read-out: Forkhead box O1 (FOXO1), FOXO1 (gene 2308); experiment: LTEA_HepaRG_FOXO1: Life Technologies and Expression Analysis (LTEA) Assay for Forkhead box O1 (FOXO1) using HepaRG (AID 2283456); settings: actives raise or lower the signal; mRNA level, 48 h
# Outline: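 FOXO1 transcript quantified by qRT-PCR after 48 h chemical exposure (top 100 uM, half-log steps, 0.5% DMSO) of HepaRG cells, housekeeping-normalized (ACTB/GAPDH/POLR2A). Changes fitted in both directions relative to vehicle.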
# [8] = read-out: Bcl-2 (BID) gene, BID (gene 637); experiment: LTEA_HepaRG_BID: Life Technologies and Expression Analysis (LTEA) Assay for Bcl-2 (BID) gene using HepaRG (AID 2283476); settings: actives raise or lower the signal; mRNA level, 48 h
# Outline: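 Assay used HepaRG hepatic cells treated 48 h in serum-free medium with half-log dilutions from 100 uM. Endpoint: BID mRNA, qRT-PCR, normalized to ACTB/GAPDH/POLR2A.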
# [9] = read-out: Caspase-3 (Homo sapiens) (UniProt P42574); experiment: LTEA_HepaRG_CASP3: Life Technologies and Expression Analysis (LTEA) Assay for cysteine-aspartic acid protease (CASP3) using HepaRG (AID 2283477); settings: actives raise or lower the signal; mRNA level, 48 h
# UniProt P42574, sequence (P42574 whole entry, looked up): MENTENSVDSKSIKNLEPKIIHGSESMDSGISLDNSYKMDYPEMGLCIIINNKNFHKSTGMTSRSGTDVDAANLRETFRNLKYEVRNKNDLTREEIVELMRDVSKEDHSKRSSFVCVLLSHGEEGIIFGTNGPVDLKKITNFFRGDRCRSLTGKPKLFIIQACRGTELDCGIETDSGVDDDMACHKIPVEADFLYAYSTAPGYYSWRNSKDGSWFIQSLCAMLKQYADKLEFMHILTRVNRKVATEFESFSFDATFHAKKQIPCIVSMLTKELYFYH
# Outline: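 HepaRG, 48 h exposure, 8 conc. (top 100 uM, half-log steps, duplicate), 0.5% DMSO vehicle; qRT-PCR of CASP3 transcript, housekeeping-normalised (ACTB/GAPDH/POLR2A); bidirectional curve fit vs DMSO baseline.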
# [10] = read-out: cysteine-aspartic acid protease (CASP8), CASP8 (gene 841); experiment: LTEA_HepaRG_CASP8: Life Technologies and Expression Analysis (LTEA) Assay for cysteine-aspartic acid protease (CASP8) using HepaRG (AID 2283480); settings: actives raise or lower the signal; mRNA level, 48 h
# Outline: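 CASP8 transcript measured by TaqMan qRT-PCR with ACTB/GAPDH/POLR2A normalization, after 48 h chemical exposure of HepaRG cells in serum-free induction medium. Eight concentrations, top 100 uM, half-log steps, 0.5% DMSO vehicle; fits in both directions versus DMSO.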
# [11] = read-out: Nuclear factor erythroid 2-related factor 2 (Homo sapiens) (UniProt Q16236); experiment: LTEA_HepaRG_NFE2L2: Life Technologies and Expression Analysis (LTEA) Assay for Nuclear factor erythroid 2-related factor 2 (NFE2L2) Transcription Factor using HepaRG (AID 2283527); settings: actives raise or lower the signal; mRNA level, 48 h;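 note: TaqMan qRT-PCR transcript level normalised to ACTB GAPDH and POLR2A housekeeping genes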
# UniProt Q16236, sequence (Q16236 whole entry, looked up): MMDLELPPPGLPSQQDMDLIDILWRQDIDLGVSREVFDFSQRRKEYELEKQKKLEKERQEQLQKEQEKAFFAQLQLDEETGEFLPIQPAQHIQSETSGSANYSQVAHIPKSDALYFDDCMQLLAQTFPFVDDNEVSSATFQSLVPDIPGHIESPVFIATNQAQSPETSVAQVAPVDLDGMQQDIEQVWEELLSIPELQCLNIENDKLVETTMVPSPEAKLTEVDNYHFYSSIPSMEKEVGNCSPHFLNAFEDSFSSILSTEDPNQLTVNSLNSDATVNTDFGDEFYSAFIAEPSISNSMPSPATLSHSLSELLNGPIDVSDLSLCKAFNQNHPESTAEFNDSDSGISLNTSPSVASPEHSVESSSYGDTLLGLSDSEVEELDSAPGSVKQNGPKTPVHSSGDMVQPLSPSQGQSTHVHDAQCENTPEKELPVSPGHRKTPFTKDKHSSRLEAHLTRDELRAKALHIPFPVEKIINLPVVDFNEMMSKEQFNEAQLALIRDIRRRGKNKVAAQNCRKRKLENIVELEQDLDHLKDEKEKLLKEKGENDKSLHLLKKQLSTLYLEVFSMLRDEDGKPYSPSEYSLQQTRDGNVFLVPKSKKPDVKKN
# Outline: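 NFE2L2 transcript level was read by qRT-PCR (housekeeping ACTB/GAPDH/POLR2A normalisation) after 48 h chemical treatment of HepaRG in serum-free induction medium. Duplicate 8-point half-log curves, top 100 uM, 0.5% DMSO vehicle; up- or down-regulation fitted against vehicle.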
# [12] = biological target: Retinoic acid receptor RXR-alpha (Homo sapiens) (UniProt P19793); experiment: OT_NURR1_NURR1RXRa_0480: Odyssey Thera (OT) 8-hour HEK293T Protein Complementation Assay for Nurr1/retinoid X receptor (RXR) (AID 2283385; active = hit-call score of the fitted dose curve at least 0.9, where 1 is the maximum)
# UniProt P19793, sequence (P19793 whole entry, looked up, the tested form may be a part): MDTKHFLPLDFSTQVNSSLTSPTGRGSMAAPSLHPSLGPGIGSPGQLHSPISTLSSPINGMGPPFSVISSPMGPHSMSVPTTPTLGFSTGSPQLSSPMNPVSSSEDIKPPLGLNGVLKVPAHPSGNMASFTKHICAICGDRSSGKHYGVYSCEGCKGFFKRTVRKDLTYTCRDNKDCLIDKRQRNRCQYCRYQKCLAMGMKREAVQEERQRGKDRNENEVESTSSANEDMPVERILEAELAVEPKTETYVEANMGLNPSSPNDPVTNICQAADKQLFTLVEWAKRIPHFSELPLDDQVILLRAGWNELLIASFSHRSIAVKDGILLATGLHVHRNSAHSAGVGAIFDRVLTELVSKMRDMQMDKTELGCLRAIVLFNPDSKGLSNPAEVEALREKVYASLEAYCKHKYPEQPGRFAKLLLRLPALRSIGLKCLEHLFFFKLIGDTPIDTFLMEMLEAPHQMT
# Outline: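 Gain in fluorescent complementation signal over DMSO, measured 8 hours after chemical dosing of human kidney HEK293T cells, indicated enhanced Nurr1–RXRα association.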
# [13] = CEETOX_H295R_OHPREG: CeeTox H295R High-throughput Steroidogenesis Assay for OH-Pregnenolone (OHPREG) (AID 2283434); settings: actives raise or lower the signal
# [14] = CEETOX_H295R_ESTRADIOL: CeeTox H295R High-throughput Steroidogenesis Assay for Estradiol (AID 2283440); settings: actives raise or lower the signal;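 note: estradiol secreted into medium quantified by LC-MS/MS after dansyl derivatisation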
# Outline: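 H295R, 48 h forskolin (10 uM) prestim → 48 h compound, 0.1% DMSO final. Estradiol in medium: MTBE extraction, dansyl chloride derivatization, LC-MS/MS. Fit bidirectional vs DMSO baseline; MTT viability in same wells.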
# [15] = CEETOX_H295R_PROG: CeeTox H295R High-throughput Steroidogenesis Assay for Progesterone (PROG) (AID 2283442); settings: actives raise or lower the signal;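 for AC50: human H295R adrenal cells primed with 10 µM forskolin before dosing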
# Outline: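 Progesterone read-out: HPLC-MS/MS on MTBE extracts of conditioned medium after 48 h chemical exposure of forskolin-primed (10 uM, 48 h) H295R cells. Gain or loss of signal was fitted relative to DMSO baseline.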
# [16] = biological target: Estrogen receptor (Homo sapiens) (UniProt P03372); experiment: OT_ERa_GFPERaERE_0480: Odyssey Thera (OT) 8-hour HeLa Transcription Induction Assay for Estrogen Receptor (AID 2283381)
# UniProt P03372, sequence (P03372 whole entry, looked up): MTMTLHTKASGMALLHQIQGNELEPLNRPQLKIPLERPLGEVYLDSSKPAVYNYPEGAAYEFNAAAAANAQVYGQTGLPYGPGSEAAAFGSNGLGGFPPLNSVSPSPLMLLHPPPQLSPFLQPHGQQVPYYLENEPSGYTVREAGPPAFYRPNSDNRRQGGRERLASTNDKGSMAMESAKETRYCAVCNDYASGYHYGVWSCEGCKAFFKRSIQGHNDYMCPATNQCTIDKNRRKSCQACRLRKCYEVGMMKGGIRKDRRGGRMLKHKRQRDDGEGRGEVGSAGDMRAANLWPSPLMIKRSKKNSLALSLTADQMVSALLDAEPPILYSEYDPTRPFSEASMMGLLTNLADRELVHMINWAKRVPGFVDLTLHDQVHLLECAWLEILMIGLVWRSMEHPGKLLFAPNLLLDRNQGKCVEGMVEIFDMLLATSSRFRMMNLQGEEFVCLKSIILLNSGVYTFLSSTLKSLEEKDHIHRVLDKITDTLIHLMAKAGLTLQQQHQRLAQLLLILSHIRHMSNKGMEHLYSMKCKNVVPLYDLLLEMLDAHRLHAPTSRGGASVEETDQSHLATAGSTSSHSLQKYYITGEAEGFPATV
# Outline: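 An 8 h HeLa transcription-induction format with a GFP reporter under ERE control, read by fluorescence microscopy; single endpoint fitted positively with DMSO as baseline.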
# [17] = biological target: Peroxisome proliferator-activated receptor gamma (Homo sapiens) (UniProt P37231); experiment: OT_PPARg_PPARgSRC1_0480: Odyssey Thera (OT) 8-hour Protein-Complementation Assay for Peroxisome Proliferator-activated Receptor Gamma / SRC-1 Co-activator (AID 2283387; active = hit-call score of the fitted dose curve at least 0.9, where 1 is the maximum;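 note: nuclear to cytoplasmic split Venus YFP fluorescence ratio reporting PPARg SRC-1 interaction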)
# Outline: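 Read-out: 488 nm N/C fluorescence ratio from complemented Venus YFP fragments, ≥350 cells per image, gain-of-signal fitted against DMSO baseline. Fusions of PPARg/SRC-1 with IFP1/IFP2 expressed transiently in HEK293T; compounds applied 8 h.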
# [18] = read-out: ABC Transporter (ABCC2), ABCC2 (gene 1244); experiment: LTEA_HepaRG_ABCC2: Life Technologies and Expression Analysis (LTEA) Assay for ABC Transporter (ABCC2) using HepaRG (AID 2283464); settings: actives raise or lower the signal; mRNA level, 48 h
# Outline: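 qRT-PCR (TaqMan, Fluidigm array) read-out of ABCC2 mRNA, normalized to three housekeeping genes. Differentiated HepaRG cells were treated 48 h in serum-free induction medium with 8-point half-log series from 100 uM in 0.5% DMSO; curves fitted bidirectionally relative to DMSO.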
# [19] = read-out: ABC Transporter (ABCB11), ABCB11 (gene 8647); experiment: LTEA_HepaRG_ABCB11: Life Technologies and Expression Analysis (LTEA) Assay for ABC Transporter (ABCB11) using HepaRG (AID 2283463); settings: actives raise or lower the signal; mRNA level, 48 h
# Outline: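 ABCB11 transcript levels quantified by TaqMan qRT-PCR against three housekeeping genes after 48 h chemical exposure of HepaRG cultures. Concentrations up to 100 uM in half-log steps, 0.5% DMSO vehicle; both induction and suppression scored.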
# [20] = read-out: Cytochrome P450 3A4 (Homo sapiens) (UniProt P08684); experiment: LTEA_HepaRG_CYP3A4: Life Technologies and Expression Analysis (LTEA) Assay for CYP3A4 using HepaRG (AID 2283487); settings: actives raise or lower the signal; mRNA level, 48 h
# UniProt P08684, sequence (P08684 whole entry, looked up): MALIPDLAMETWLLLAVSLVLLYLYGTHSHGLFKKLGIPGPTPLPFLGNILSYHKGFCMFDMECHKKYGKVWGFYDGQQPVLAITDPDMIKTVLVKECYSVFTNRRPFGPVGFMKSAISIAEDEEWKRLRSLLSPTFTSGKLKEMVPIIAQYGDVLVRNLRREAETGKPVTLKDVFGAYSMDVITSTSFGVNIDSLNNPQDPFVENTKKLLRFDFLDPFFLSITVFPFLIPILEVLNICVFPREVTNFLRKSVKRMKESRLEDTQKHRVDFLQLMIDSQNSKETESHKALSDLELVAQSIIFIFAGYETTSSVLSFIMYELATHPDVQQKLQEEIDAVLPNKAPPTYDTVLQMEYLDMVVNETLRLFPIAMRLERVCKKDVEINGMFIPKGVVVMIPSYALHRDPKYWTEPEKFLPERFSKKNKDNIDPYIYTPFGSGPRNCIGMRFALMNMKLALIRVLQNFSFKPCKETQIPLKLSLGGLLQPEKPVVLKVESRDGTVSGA
# Outline: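 CYP3A4 transcript measured by TaqMan qRT-PCR and normalized to three housekeeping genes after 48 h chemical exposure of human HepaRG cells. Top concentration 100 uM, half-log steps, 0.5% DMSO vehicle; gain or loss fitted against DMSO baseline.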
# [21] = read-out: Insulin Like Growth Factor 1 (IGF1), IGF1 (gene 3479); experiment: LTEA_HepaRG_IGF1: Life Technologies and Expression Analysis (LTEA) Assay for Insulin Like Growth Factor 1 (IGF1) using HepaRG (AID 2283506); settings: actives raise or lower the signal; mRNA level, 48 h
# Outline: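 Endpoint: IGF1 mRNA change by qRT-PCR, housekeeping-normalized, fitted bidirectionally relative to 0.5% DMSO vehicle. Human HepaRG cells were treated 48 h in serum-free induction medium, eight half-log concentrations topping at 100 uM.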
# [22] = read-out: Signal transducer and activator of transcription 3 (Homo sapiens) (UniProt P40763); experiment: LTEA_HepaRG_STAT3: Life Technologies and Expression Analysis (LTEA) Assay for Signal transducer and activator of transcription (STAT3) using HepaRG (AID 2283529); settings: actives raise or lower the signal; mRNA level, 48 h
# UniProt P40763, sequence (P40763 whole entry, looked up): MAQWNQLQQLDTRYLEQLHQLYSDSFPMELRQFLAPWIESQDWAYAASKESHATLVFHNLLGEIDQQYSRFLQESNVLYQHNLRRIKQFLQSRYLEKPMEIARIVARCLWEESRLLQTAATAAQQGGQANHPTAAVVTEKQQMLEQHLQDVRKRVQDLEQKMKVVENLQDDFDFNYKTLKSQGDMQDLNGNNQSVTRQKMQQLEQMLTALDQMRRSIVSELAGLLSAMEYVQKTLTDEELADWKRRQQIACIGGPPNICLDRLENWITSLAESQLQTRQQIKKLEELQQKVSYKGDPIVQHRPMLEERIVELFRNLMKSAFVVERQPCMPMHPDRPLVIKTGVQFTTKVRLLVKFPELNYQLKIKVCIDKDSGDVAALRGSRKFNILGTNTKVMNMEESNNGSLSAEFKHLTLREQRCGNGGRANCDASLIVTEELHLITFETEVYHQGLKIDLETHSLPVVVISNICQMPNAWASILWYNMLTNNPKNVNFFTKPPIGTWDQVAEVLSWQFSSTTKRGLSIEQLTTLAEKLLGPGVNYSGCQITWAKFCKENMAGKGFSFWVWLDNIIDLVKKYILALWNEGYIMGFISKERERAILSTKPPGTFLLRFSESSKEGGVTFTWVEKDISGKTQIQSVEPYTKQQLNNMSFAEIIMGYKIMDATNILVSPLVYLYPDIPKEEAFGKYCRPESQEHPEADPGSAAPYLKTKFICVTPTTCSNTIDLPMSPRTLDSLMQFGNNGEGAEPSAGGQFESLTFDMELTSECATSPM
# Outline: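 STAT3 transcript quantified by qRT-PCR against three housekeeping genes (ACTB, GAPDH, POLR2A), fitted both directions relative to DMSO. HepaRG cultures exposed 48 h to eight half-log concentrations, top 100 uM, 0.5% DMSO, serum-free induction medium.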
# [23] = read-out: Tumor necrosis factor receptor 1 (TNFRSF1A), TNFRSF1A (gene 7132); experiment: LTEA_HepaRG_TNFRSF1A: Life Technologies and Expression Analysis (LTEA) Assay for Tumor necrosis factor receptor 1 (TNFRSF1A) using HepaRG (AID 2283535); settings: actives raise or lower the signal; mRNA level, 48 h
# Outline: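 HepaRG, 48 h plating then 48 h chemical exposure, serum-free induction media; 8-pt CRC from 100 uM, half-log, 0.5% DMSO vehicle, duplicates. Readout: TaqMan qRT-PCR (Fluidigm), housekeeping-gene normalized; bidirectional fit vs DMSO.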
# [24] = TAMU_PeakParms_SingleDonor1434_Chronotropy: Texas A&M University (TAMU) 1.5-hr Human Induced Pluripotent Stem Cell (iPSC)-derived Cardiomyocytes Calcium (Ca+2) Flux Assay for Cardiotoxicity: Chronotropy (changes in peak frequency) (AID 2284217); settings: actives raise or lower the signal
# Outline: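 iPSC-CMs, donor 1434; 4 conc (0.2–100 uM), 0.5% v/v DMSO, 90 min, 37C/5% CO2; Ca2+ flux fluorescence → peak.freq.avg; peak.freq.avg = 0 dropped; bidirectional fit vs DMSO; EC05 POD.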
# [25] = biological target: Retinoic acid receptor RXR-alpha (Homo sapiens) (UniProt P19793); experiment: OT_NURR1_NURR1RXRa_1440: Odyssey Thera (OT) 24-hour HEK293T Protein Complementation Assay for Nurr1/retinoid X receptor (RXR) (AID 2283386; active = hit-call score of the fitted dose curve at least 0.9, where 1 is the maximum)
# Outline: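 Cell-based binding reporter: HEK293T cells, 24 h exposure, fluorescence-detected fragment complementation, DMSO as baseline.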
smiles,measurement,setting,value
c1ccc(NNc2ccccc2)cc1,outcome,[1],inactive
same,outcome,[2],inactive
same,outcome,[3],inactive
same,AC50,[4],active: 30.3 µM
COS(=O)(=O)OC,outcome,[5],inactive
same,outcome,[6],inactive
CC(C)(C)OOC(C)(C)CCC(C)(C)OOC(C)(C)C,outcome,[7],inactive
same,outcome,[8],inactive
same,outcome,[9],inactive
same,outcome,[10],inactive
same,outcome,[11],inactive
O=C(NC(=O)c1c(F)cccc1F)Nc1ccc(Oc2ccc(C(F)(F)F)cc2Cl)cc1F,AC50,[12],active: 33.9 µM
Clc1ccc(Cl)cc1,outcome,[5],inactive
CCOc1cc(C(C)(C)C)ccc1C1COC(c2c(F)cccc2F)=N1 (stereo not drawn),outcome,[13],inactive
same,outcome,[14],inactive
same,outcome,[15],inactive
Cc1cc(O)ccc1Cl,outcome,[16],inactive
same,outcome,[17],inactive
same,outcome,[5],inactive
same,outcome,[18],inactive
COC(=O)NS(=O)(=O)c1ccc(N)cc1,outcome,[12],inactive
O=C(Oc1ccc(Br)cc1)N1CCN2CCC1CC2,AC50,[13],active: 50 µM
same,outcome,[19],inactive
same,AC50,[3],active: 1.17 µM
c1ccc(N=Nc2ccccc2)cc1,outcome,[2],inactive
same,AC50,[15],active: 50 µM
same,outcome,[20],inactive
same,outcome,[21],inactive
same,outcome,[22],inactive
same,outcome,[23],inactive
same,AC50,[24],active: 34.7 µM
CN(C)C(=O)Cl,outcome,[7],inactive
O=C1C(Cl)=C(Cl)C(=O)c2ccccc21,AC50,[25],active: 11.7 µM
